Assay results reported in the supplement of paper PMC3334620.
In all, about 33,000 sequences were measured (“E-score (-0.5 to 0.5)”: median about -0.021, highest 2% from about 0.32 on). This is one part of the list.

Molecular target: T1, Zap1 (UniProt P47043)
T1 sequence: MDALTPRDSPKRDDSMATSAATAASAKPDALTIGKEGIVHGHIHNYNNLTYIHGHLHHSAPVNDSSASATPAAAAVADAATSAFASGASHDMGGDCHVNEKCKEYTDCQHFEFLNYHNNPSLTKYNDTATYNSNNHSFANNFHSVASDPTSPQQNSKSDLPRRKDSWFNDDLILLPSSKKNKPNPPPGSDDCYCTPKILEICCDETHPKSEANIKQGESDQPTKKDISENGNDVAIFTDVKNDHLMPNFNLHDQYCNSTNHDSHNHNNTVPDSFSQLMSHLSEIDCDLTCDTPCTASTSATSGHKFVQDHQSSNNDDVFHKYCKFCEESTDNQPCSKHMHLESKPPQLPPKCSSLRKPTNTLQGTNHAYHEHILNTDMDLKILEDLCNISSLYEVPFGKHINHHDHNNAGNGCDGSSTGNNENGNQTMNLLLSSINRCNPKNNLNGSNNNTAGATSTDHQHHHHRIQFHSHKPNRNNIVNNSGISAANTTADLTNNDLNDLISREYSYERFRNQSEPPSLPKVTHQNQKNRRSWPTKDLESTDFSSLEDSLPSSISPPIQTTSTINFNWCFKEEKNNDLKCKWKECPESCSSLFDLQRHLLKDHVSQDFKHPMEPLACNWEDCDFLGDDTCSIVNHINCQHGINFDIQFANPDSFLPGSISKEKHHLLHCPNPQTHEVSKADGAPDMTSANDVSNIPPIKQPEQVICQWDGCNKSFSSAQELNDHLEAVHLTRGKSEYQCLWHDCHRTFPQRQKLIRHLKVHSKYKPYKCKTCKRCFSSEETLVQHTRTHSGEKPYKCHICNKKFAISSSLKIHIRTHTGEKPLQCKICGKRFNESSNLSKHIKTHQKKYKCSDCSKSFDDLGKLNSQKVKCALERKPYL
Assay: PBM E-score (8-mer binding enrichment) (E-score (-0.5 to 0.5)); higher = stronger / more preferred TF binding; most listed sequences are background and not binding sites
Details: protein concentration: 200 nM; construct: GST-full length
Method in brief: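 Bound GST-tagged yeast transcription factors, applied at about 100-200 nM to double-stranded universal all-10-mer Agilent arrays, were detected with fluorescent anti-GST. Scans were normalised with masliner. A modified Wilcoxon-Mann-Whitney statistic, the E-score, was assigned to each ungapped eight-base word pooled with its reverse complement by the Universal PBM Analysis Suite.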

Row | Sequence | PBM E-score
1 | ACGCCATC | -0.168
2 | CAAGGGCA | -0.182
3 | ATTCATGA | 0.0897
4 | CCACCGAA | 0.192
5 | ATGGCCAA | 0.0886
6 | GTGTAATA | 0.0548
7 | GCGGGCCA | -0.187
8 | TACATTAA | 0.302
9 | AGATTTAG | 0.173
10 | CTCTTGTC | -0.0842
11 | TACTGGGA | 0.0284
12 | TGTGTTAA | 0.0894
13 | ACCCGAGG | 0.297
14 | AGTGCGAC | -0.109
15 | CGAAAGAA | 0.137
16 | AGCGAGGG | -0.0631
17 | CCATTATA | 0.179
18 | ATGGTTTA | 0.191
19 | CTCGTTGC | 0.211
20 | GTACAACA | 0.185
21 | GTACACAA | 0.12
22 | CTATGACA | -0.117
23 | GCAGGAAC | -0.181
24 | CATGCCGG | -0.116
25 | CGCGTTCA | 0.153

Row | Sequence | PBM E-score
26 | ATACATGC | -0.216
27 | CGTCTTGA | 0.0342
28 | AACAGAAA | 0.202
29 | ACGATGGC | -0.0959
30 | CGAGCCTC | -0.322
31 | CCGCAGGA | -0.076
32 | ACGCCTCT | -0.0358
33 | CGCCGATA | -0.0619
34 | ATCGCGCG | 0.125
35 | ACCGAAGC | -0.11
36 | ACGAAGGC | -0.382
37 | AGGCGACC | 0.0543
38 | GATCATCA | -0.01
39 | ACAGAAGT | -0.0353
40 | ATCGATCA | -0.0301
41 | TCACCTGA | -0.0817
42 | GCCAGCCC | -0.204
43 | CCATGGAC | 0.0921
44 | CCGTAAAC | 0.197
45 | ATGTGGGA | -0.139
46 | AATTTGCG | -0.025
47 | GCTGTACA | -0.181
48 | GAACATTC | -0.174
49 | CTTGACAA | 0.0636
50 | GAGGCGAA | -0.123

Row | Sequence | PBM E-score
51 | CGAGGGTC | 0.245
52 | GGCCTGAC | -0.0811
53 | ACATTAGG | 0.0931
54 | CACTGGAA | -0.011
55 | GAGCGAGA | 0.0493
56 | ATTCTTTC | -0.0304
57 | AAGCTCGT | -0.163
58 | GACAAGCA | -0.193
59 | ACTGGAAA | 0.14
60 | AAGCACCA | -0.142
61 | AATGCCCG | -0.153
62 | CCTCTGCC | -0.33
63 | ACCAATAG | 0.0471
64 | CGAATGTC | 0.0201
65 | AGTGCTTG | -0.00778
66 | CTCTCCTA | -0.129
67 | AACATACG | 0.125
68 | ATTTGCCG | -0.168
69 | CGAGTTTC | -0.0942
70 | ACGGCGTG | -0.163
71 | AGTGGTTG | 0.312
72 | GAAGGACC | 0.1
73 | GAATAGCC | -0.103
74 | AACAGCGA | -0.0959
75 | ATGAACAA | 0.0884

Row | Sequence | PBM E-score
76 | AATAGGCA | -0.128
77 | GAGGCTAC | 0.0381
78 | GGACGCGA | -0.163
79 | AGCTGTAT | -0.19
80 | ACCTTACC | 0.251
81 | CCGCTAGC | -0.222
82 | TAGCAACA | -0.0723
83 | ACTGTAGG | 0.212
84 | ACGAAGGA | -0.166
85 | AAAGGTCG | 0.323
86 | TCATTAAA | 0.3
87 | CTTACGTC | -0.182
88 | CTTAGTAA | 0.0433
89 | GTTATGGA | 0.294
90 | TCTTAAAA | 0.0989
91 | TCCATGCA | -0.0815
92 | ACTCTACA | -0.0581
93 | AGCACGCT | -0.147
94 | CACTCCGA | -0.163
95 | TAAGGCGA | -0.0498
96 | ACCTTACT | 0.2
97 | GATGGATA | -0.131
98 | AATGCGAA | -0.0534
99 | GTACGTAA | 0.0366
100 | AACAGAGT | 0.0155

Row | Sequence | PBM E-score
101 | ATAACTCG | 0.131
102 | GTTATAAC | 0.401
103 | CCCAAGAA | 0.0734
104 | GCCATAAA | 0.099
105 | AATCCAAT | -0.00622
106 | GGTAAACC | -0.00185
107 | GTCACGCA | -0.0264
108 | ACTCACTC | -0.113
109 | CAGCAAGC | -0.389
110 | CACCACTC | 0.139
111 | ACCACCGG | 0.143
112 | AGCGGCAA | -0.225
113 | GAGCCCCA | -0.0458
114 | AATTGAAC | -0.0125
115 | ACCCCTGG | 0.289
116 | CCATACAG | 0.0668
117 | ACTATAGA | 0.0389
118 | AATCCCTC | -0.162
119 | AGCGCGCA | -0.032
120 | CGAGCTTC | -0.124
121 | ATGTCTCG | -0.211
122 | AGAACCTA | 0.0497
123 | CCATACTC | -0.00872
124 | CATTTGCA | 0.104
125 | AAGTTGAA | 0.00377

Row | Sequence | PBM E-score
126 | AGTTCAAG | 0.0918
127 | GCCTATGA | -0.00418
128 | ACCATCTA | -0.0543
129 | GCTGACTA | -0.246
130 | GACGCAAA | -0.0858
131 | TAGCTTAA | 0.0855
132 | ACTATGCA | 0.00554
133 | TAATATAA | 0.283
134 | GAAGCGCC | -0.135
135 | CTGATCGC | -0.199
136 | ATGCGGTC | 0.179
137 | AATGAGTG | 0.0236
138 | AAGAATCC | -0.0422
139 | ATCACTAA | 0.0673
140 | CCCGCCCC | 0.176
141 | CCATGCGA | -0.00441
142 | AAGGATGC | -0.24
143 | CCTGCTAG | -0.173
144 | ACATCTCG | -0.113
145 | AGGCATTC | -0.255
146 | GAGTACCA | 0.247
147 | AAACACCT | 0.196
148 | TATCGTGA | 0.0588
149 | AGTTCCAT | 0.103
150 | AGGTGTAC | -0.0668

Row | Sequence | PBM E-score
151 | AAGATGTG | 0.136
152 | GGACTACC | 0.172
153 | ACGCCCAC | 0.0802
154 | GGTTGTGA | 0.374
155 | GGCGTCTA | -0.147
156 | TTAGACAA | -0.0263
157 | GCGCTGAA | -0.241
158 | ATGACCTG | 0.303
159 | AAGAAAAA | 0.19
160 | CGTTGCGA | -0.126
161 | ACGCACCG | -0.0299
162 | ATTACTGA | 0.0342
163 | TCCAAAGA | 0.13
164 | CTACTGAG | -0.0539
165 | CCTCAATA | 0.0804
166 | CCTAAGCC | -0.264
167 | CCCGAACC | 0.0468
168 | CAAACCAG | 0.0515
169 | GGTCCTGA | 0.102
170 | CCGGTGCG | 0.0015
171 | CAGTGGTC | 0.0921
172 | GGTAACAC | 0.237
